Test results published in PubChem BioAssay (NCATS).
Where “and” joins values, the source holds several entries; their conditions need not be identical. Equal entries are not always repeated. The shares of active, inactive and inconclusive entries below differ from those in the screen. For some of these results: Potencies beside an inconclusive call are fits to weak or partial responses and may not hold up. Calls of active or inactive are those of the source. Calls come from the whole dose curve; as a rule, active = well fitted curve in the direction sought with a large enough effect; inconclusive = small, poorly fitted or top-dose-only effect, or another doubt; inactive = no such curve, though single readings can be large; an effect the other way counts as inactive or inconclusive.

Legend:
[1] = tested on: KB-3-1; assay: Cytotoxic Profiling of Annotated Libraries Using Quantitative High-Throughput Screening (AID 1296008); conditions: Five cell lines viability, CellTiter-Glo ATP luminescence, 48-72 h; max response: stronger effect = lower value; note: nearly all actives have a fitted effect of over 60% in size; for max response: % is set by controls: 0 for no effect and ±100 for the full control effect
Procedure, shortened: (§1)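 Cytotoxicity was measured as CellTiter-Glo ATP luminescence, read after 10 min at room temperature. Compound treatment of the cells lasted 48 or 72 hr at 37 degrees Celsius in a qHTS format.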

[2] = tested on: NIH3T3; assay: as above; conditions: Five cell lines viability, CellTiter-Glo ATP luminescence, 48-72 h; max response: stronger effect = lower value
Procedure, shortened: as §1

[3] = tested on: astro; assay: Drug repurposing screens with cells derived from glioblastoma tumor samples (AID 1345199); conditions: viability, ATP luminescence, 48 h; activity, negative = cell killing: at 45.9 µM (top of the series) unless noted; note: nearly all actives have a fitted effect of over 40% in size; for activity, negative = cell killing: % is set by controls: 0 for no effect and ±100 for the full control effect
Procedure, shortened: (§2)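 Primary testing used CD133+ neurospheres from four GBM patients, seven concentrations, 48 h exposure and ATP-based viability; confirmation added three slower-growing patient lines.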

[4] = qHTS assay to identify inhibitors of the type 1 interferon - major histocompatibility complex class I in skeletal muscle: Counter screen cell viability and HiBit confirmation (AID 1347412); conditions: iHSKM muscle cells + IFN-b, HiBiT or CellTiter-Glo, 24 h; note: nearly all actives have a fitted effect of over 60% in size
Procedure, shortened: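 HLA-B*08:01–HiBiT knock-in immortalized human myoblasts (C25cl48) stimulated with 4.0 ng/ml human IFN-beta and dosed with compound in a 12-point 1:3 titration (top final 46 uM). After 24 hrs at 37 C, HiBiT lytic luminescence or CellTiter Glo ATP read out.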

[5] = tested on: 7G8; assay: qHTS profiling for inhibitors of Plasmodium falciparum proliferation (AID 504749); note: nearly all actives have a fitted effect of over 60% in size; conditions: P. falciparum in erythrocytes, SYBR Green DNA, 72 h; series mostly up to 28.7 µM
Procedure, shortened: (§3)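 In a 72 h erythrocytic culture (37 C, humidified, 5% CO2) at 2.5% hematocrit and 0.3% starting parasitemia, compounds were tested; SYBR Green I in detergent lysis buffer stained parasite DNA overnight.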

[6] = tested on: AA1029; assay: as above; conditions: P. falciparum in erythrocytes, SYBR Green DNA, 72 h; series mostly up to 28.7 µM
Procedure, shortened: as §3

[7] = Drug repurposing screens with cells derived from glioblastoma tumor samples (AID 1345199); conditions: GBM patient neurospheres viability, ATP luminescence, 48 h; Potency: tumour line A unless noted; series mostly up to 46 µM; note: nearly all actives have a fitted effect of over 40% in size; for activity, negative = cell killing: % is set by controls: 0 for no effect and ±100 for the full control effect
Procedure, shortened: as §2
Potency is the fitted concentration of half-maximal effect; tags give direction and shape of the fitted curve.

**Q.** With CN(C(=O)CN1C(=O)COc2cc(Cl)c(Cl)cc21)[C@@H](CN1CCCC1)c1ccc(-c2cccc(C(N)=O)c2)cc1 as the molecule, how does the Potency [1] read?
**A.** The Potency was inconclusive: 18.4 µM [inhibitor, single point].

**Q.** And the Potency [2]?
**A.** Its Potency is inconclusive: 25.9 µM [inhibitor, single point].

**Q.** For Nc1ccc(Cl)cc1N, which max response [1] is on record?
**A.** Its max response is inactive: -2.75%.

**Q.** What about the Potency [2] of the same molecule?
**A.** The Potency was inconclusive: 48.6 µM [inhibitor, single point].

**Q.** What about the Potency [3] of the same molecule?
**A.** The Potency was inconclusive: 35.5 µM [inhibitor, partial curve].

**Q.** With Cc1sc2c(c1C)C(c1ccc(Cl)cc1)=N[C@@H](CC(N)=O)c1nnc(C)n1-2 as the molecule, how does the Potency [1] read?
**A.** Its Potency is inconclusive: 1.64 µM [inhibitor, full curve].

**Q.** And the Potency [2]?
**A.** Its Potency is inconclusive: 0.58 µM [inhibitor, full curve].

**Q.** And the Potency ([4]; HiBiT)?
**A.** The Potency was inconclusive: 0.557 µM [inhibitor, full curve].

**Q.** Which Potency [1] does the source give for C=C1[C@@H](C)C2[C@H](Cc3ccccc3)NC(=O)[C@@]23C(/C=C/C[C@H](C)C[C@@](C)(O)/C=C/[C@@H]3OC(C)=O)[C@@H]1O (some centres not stated) here?
**A.** The Potency was inconclusive: 0.92 µM [inhibitor, full curve, poor fit].

**Q.** And the Potency [2]?
**A.** Its Potency is inconclusive: 0.259 µM [inhibitor, full curve].

**Q.** With CO[C@@H]1[C@@H](O)[C@@H](O[C@H]2CC[C@]3(C=O)C4CC[C@]5(C)[C@@H](C6=CC(=O)OC6)CC[C@]5(O)[C@@H]4CC[C@H]3C2)O[C@@H](C)[C@H]1O[C@@H]1O[C@H](CO[C@@H]2O[C@H](CO)[C@@H](O)[C@H](O)[C@H]2O)[C@@H](O)[C@H](O)[C@H]1O (some centres not stated) as the molecule, how does the Potency [1] read?
**A.** Its Potency is inconclusive: 6.93 µM [inhibitor, single point].

**Q.** And the outcome [2]?
**A.** The outcome was “inactive”.

**Q.** For CO[C@]12CC[C@@]3(C[C@@H]1[C@](C)(O)C(C)(C)C)[C@@H]1Cc4ccc(O)c5c4[C@@]3(CCN1CC1CC1)[C@H]2O5, which Potency [1] is on record?
**A.** Its Potency is inconclusive: 35.5 µM [inhibitor, single point].

**Q.** And the Potency [2]?
**A.** The Potency was inconclusive: 67.9 µM [inhibitor, single point].

**Q.** What about the Potency ([4]; HiBiT) of the same molecule?
**A.** The Potency was inconclusive: 80.2 µM [inhibitor, single point].

**Q.** And the Potency ([4]; Viability)?
**A.** The Potency was inconclusive: 80.2 µM [cytotoxic, single point].

**Q.** For COc1ccc(OC)c(CC(C)N)c1 (configuration not stated), which max response [1] is on record?
**A.** Its max response is inactive: -0.889%.

**Q.** And the max response [2]?
**A.** Its max response is inactive: -6.71%.

**Q.** Which results are given for CCCCCCCCCCCC[N+](C)(C)CCOc1ccccc1?
**A.** Potency [1]: inconclusive: 29.1 µM [inhibitor, single point]; Potency [2]: inconclusive: 7.5 µM [inhibitor, partial curve]; Potency [3]: active: 20 µM; Potency [5]: active: 3.98 µM; Potency [6]: active: 5.01 µM

**Q.** With CC[C@]1(O)CC[C@H]2[C@@H]3CCC4=CCCC[C@@H]4[C@H]3CC[C@@]21C as the molecule, how does the Potency [1] read?
**A.** The Potency was inconclusive: 29.1 µM [inhibitor, single point].

**Q.** And the Potency [2]?
**A.** Its Potency is inconclusive: 33.5 µM [inhibitor, single point].

**Q.** What about the Potency [3] of the same molecule?
**A.** The Potency was inconclusive: 5.01 µM [inhibitor, full curve].

**Q.** And the Potency [6]?
**A.** The Potency was inconclusive: 10 µM [inhibitor, single point].

**Q.** For CN1C(=O)CN=C(c2ccccc2)c2cc(Cl)ccc21, which max response [1] is on record?
**A.** Its max response is inactive: -19.7%.

**Q.** What about the Potency [2] of the same molecule?
**A.** The Potency was inconclusive: 33.5 µM [inhibitor, partial curve, poor fit].

**Q.** What about the Potency [7] of the same molecule?
**A.** Its Potency is inconclusive: 11.2 µM [inhibitor, partial curve].

**Q.** What about the Potency [3] of the same molecule?
**A.** Its Potency is “inactive”.

**Q.** Which results are given for CC[C@@H](C)[C@H]1C(=O)O[C@H](C(C)C)C(=O)N(C)[C@@H](C(C)C)C(=O)O[C@H](C(C)C)C(=O)N(C)[C@@H](C(C)C)C(=O)O[C@H](C(C)C)C(=O)N1C?
**A.** Potency [1]: inconclusive: 6.85 µM [inhibitor, single point]; Potency [2]: inconclusive: 9.68 µM [inhibitor, single point]

**Q.** Which results are given for CCNC(=O)C[C@@H]1N=C(c2ccc(Cl)cc2)c2cc(OC)ccc2-n2c(C)nnc21?
**A.** Potency [1]: inconclusive: 2.64 µM [inhibitor, full curve] and inconclusive: 5.8 µM [inhibitor, full curve]; Potency [2]: inconclusive: 5.26 µM [inhibitor, partial curve] and active: 1.84 µM

**Q.** What does the source list for C[C@H](CCC(=O)O)C[C@H](C)C[C@H](C)C(=O)/C=C(\O)[C@H](C)C[C@H](C)C/C=C/[C@@H](C)[C@@H](O)[C@@H](C)[C@@H](O)C[C@@H]1CC[C@@](C)([C@H]2CC[C@@](C)([C@@H](C)O)O2)O1?
**A.** Potency [1]: active: 8.93 µM; Potency [2]: inconclusive: 11.2 µM [inhibitor, single point]
